Laboratory results from article PMC4336329 (PLoS ONE, 2015).
Among all 310,000 compounds or so, about 2,200 (0.71%) showed an effect of 50% or more. Effects have a minus sign here. The list shows a part of the results.

Target: human ether-à-go-go-related gene (hERG) potassium channel (human, UniProt Q12809)
Test: primary screen, population patch clamp on CHO cells stably expressing hERG

Chain of human ether-à-go-go-related gene (hERG) potassium channel (Q12809 whole entry, looked up): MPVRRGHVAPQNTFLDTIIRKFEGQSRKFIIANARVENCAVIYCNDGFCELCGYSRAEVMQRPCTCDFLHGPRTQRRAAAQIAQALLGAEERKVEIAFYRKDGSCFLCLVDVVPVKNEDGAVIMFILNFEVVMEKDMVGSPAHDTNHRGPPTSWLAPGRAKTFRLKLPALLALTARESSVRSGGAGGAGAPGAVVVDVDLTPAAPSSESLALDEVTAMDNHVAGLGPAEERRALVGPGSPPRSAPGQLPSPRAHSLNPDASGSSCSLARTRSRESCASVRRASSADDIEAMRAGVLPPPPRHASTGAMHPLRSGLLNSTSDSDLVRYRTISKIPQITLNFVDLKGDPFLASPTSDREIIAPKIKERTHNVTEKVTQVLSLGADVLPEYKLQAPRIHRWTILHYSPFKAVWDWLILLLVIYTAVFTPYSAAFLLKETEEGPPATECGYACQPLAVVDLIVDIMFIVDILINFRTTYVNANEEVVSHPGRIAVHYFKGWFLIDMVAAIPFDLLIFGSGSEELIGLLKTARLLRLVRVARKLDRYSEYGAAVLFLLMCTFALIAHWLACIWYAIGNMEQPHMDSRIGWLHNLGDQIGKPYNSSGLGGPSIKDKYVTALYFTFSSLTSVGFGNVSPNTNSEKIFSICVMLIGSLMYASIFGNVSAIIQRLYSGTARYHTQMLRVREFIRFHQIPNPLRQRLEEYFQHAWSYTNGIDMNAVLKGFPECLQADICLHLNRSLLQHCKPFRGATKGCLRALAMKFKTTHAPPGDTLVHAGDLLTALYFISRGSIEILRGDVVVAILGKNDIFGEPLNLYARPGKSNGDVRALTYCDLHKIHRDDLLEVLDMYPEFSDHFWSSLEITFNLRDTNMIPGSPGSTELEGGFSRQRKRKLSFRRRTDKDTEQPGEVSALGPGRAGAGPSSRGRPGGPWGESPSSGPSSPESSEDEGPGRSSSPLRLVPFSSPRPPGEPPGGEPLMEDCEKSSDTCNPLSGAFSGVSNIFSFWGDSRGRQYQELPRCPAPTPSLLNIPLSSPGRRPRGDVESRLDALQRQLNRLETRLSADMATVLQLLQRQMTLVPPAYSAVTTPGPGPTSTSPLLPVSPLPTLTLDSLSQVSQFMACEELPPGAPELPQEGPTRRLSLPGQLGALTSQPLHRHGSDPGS

| Compound | hERG current change (%, negative = inhibition) at 1uM [%] |
| --- | --- |
| C=CCNC(=O)C(=O)N/N=C/c1cccc(Br)c1 | 9.95 |
| O=C(Oc1cccc(C(=S)N2CCOCC2)c1)c1cc([N+](=O)[O-])cc([N+](=O)[O-])c1 | 6.81 |
| Cc1ccc(C(=O)N2CCC(C(=O)c3ccc(Cl)cc3)CC2)cc1 | -11.3 |
| CC1(C)CC(=O)C(N=Nc2ccc(S(=O)(=O)N3CCOCC3)cc2)=C(O)C1 | 23.9 |
| O=C(COc1ccc(Cl)cc1Cl)N/N=C/c1cccnc1 | 7.96 |
| NC(=O)c1nsc(C(=O)N(Cc2cccnc2)C(C(=O)NC2CCCC2)c2ccc(F)cc2)c1N (stereo not drawn) | 14.6 |
| CS(=O)(=O)N(CC(N)=O)c1ccc(F)c(Cl)c1 | 6.29 |
| O=C(CSc1ncccc1C(=O)O)Nc1ccc2c(c1)OCCO2 | 3.9 |
| COc1cccc(OCCSc2nc(C)c(Cc3ccccc3)c(=O)[nH]2)c1 | 16.1 |
| Cc1cccc(NS(=O)(=O)c2nnc(NC(=O)CC(C)C)s2)c1 | 13.5 |
| O=c1cc(N2CCCCC2)c(-c2ccccc2)nn1Cc1ccccc1Cl | 1.54 |
| CC1(C)CC2(CCO1)C(Nc1ccccc1)=NC(=S)N2c1ccccc1 (stereo not drawn) | 10.4 |
| CCCn1nc(NC(=O)c2ccco2)c2cc3ccccc3nc21 | -10.1 |
| O=c1[nH]c2ccccc2o1 | 17 |
| COCC(=O)N(C)c1nnc(-c2cnc(C)cn2)s1 | 10.3 |
| CCCCNC(=S)N(CCN(CC)CC)Cc1cc2cc3c(cc2[nH]c1=O)OCO3 | -1 |
| Cc1cc(C)c(C)c(S(=O)(=O)N2CCN(C)CC2)c1C | 10 |
| CCC(=O)C(C#N)(c1ccc(OC)c(OC)c1)C(C)C (stereo not drawn) | 4.06 |
| COc1ccc(N(CC(=O)N/N=C/c2cc(OC)ccc2OC)S(=O)(=O)c2ccccc2)cc1 | 10.4 |
| CNC(=O)c1ccccc1Sc1cccc2cccc(C(=O)O)c12 | 9.98 |
| COc1ccc(NC(=O)CCN2CCCC(C)C2)cc1 (stereo not drawn) | -5.26 |
| O=C1CC(c2ccc(F)cc2)Cc2nc(N3CCOCC3)ncc21 (stereo not drawn) | 6.83 |
| Cc1cnn(CCC(=O)NNC(=S)Nc2ccc(F)cc2)c1 | 9.51 |
| CC(C)N(CCNC(=O)C1CCC(=O)N1Cc1ccc(F)cc1)Cc1ccccc1 (stereo not drawn) | 0.186 |

| Compound | hERG current change (%, negative = inhibition) at 1uM [%] |
| --- | --- |
| Cc1cccc(NC(=O)CSCC(=O)Nc2ccccc2C(=O)NC2CC2)c1 | 14.1 |
| CNc1oc(-c2ccc(F)cc2)nc1S(=O)(=O)c1ccccc1 | 6.56 |
| CCCCNc1nnc(SCC(=O)c2c[nH]c3ccccc23)s1 | 6.24 |
| CC(=O)c1ccc(OCC(=O)NC2CCCCCC2)cc1 | 10.9 |
| Cc1cccc(-n2ncc3c2CCCC3NC(=O)C2=CC(=O)CC(C)(C)O2)c1C (stereo not drawn) | 6.55 |
| Cc1ccc(/C(C#N)=C\c2ccc(N3CCOCC3)o2)cc1 | 1.96 |
| CCN(CC)CCNC(=O)/C(=C/c1cn(CC)c2ccccc12)NC(=O)c1cc(OC)c(OC)c(OC)c1 | 8.66 |
| CC(=O)Nc1ccc(S(=O)(=O)NNC(=O)c2sc(=S)n(C)c2C)cc1 | 3.98 |
| COc1ccccc1S(=O)Cc1ccc(C(=O)NCc2ccccc2Cl)o1 (stereo not drawn) | -2.12 |
| O=C(CS(=O)(=O)c1ccccc1)Nc1cccnc1 | 11.4 |
| CCCC(=O)Nc1nnc(SCC(=O)NCc2ccc3c(c2)OCO3)s1 | 16.7 |
| COc1ccccc1CN(C)CC(=O)NC1CCCc2ccccc21 (stereo not drawn) | 5 |
| COc1ccc(C(CC(=O)O)NC(=O)C(c2ccccc2)c2ccccc2)cc1 (stereo not drawn) | 9.89 |
| COc1ccc(S(=O)(=O)N2CCCC2CNC(=O)C(=O)NCc2ccccc2)cc1 (stereo not drawn) | 3.48 |
| COCCCNC(=O)[C@H]1N2C(=O)c3ccccc3C2SC1(C)C (stereo partly drawn) | 6.69 |
| O=C(CCN1C(=O)c2cccc3cccc(c23)C1=O)NCC1CCCO1 (stereo not drawn) | 13.6 |
| C/C(Cc1ccccc1)=N/NC(=O)CNC(=O)C(c1ccccc1)c1ccccc1 | 3.64 |
| CCOC(=O)N1CCN(Cc2nc(N)nc(Nc3ccc(C)cc3)n2)CC1 | -37 |
| CCOc1ccc(C(=O)C2CCN(C(=O)c3ccccc3C(=O)O)CC2)cc1 | -5.09 |
| COc1cccc(/C=N/NC(=O)c2ccccc2NC(=O)c2ccco2)c1OC | 13.4 |
| CCOCCCNC(=O)c1ccc(Br)cc1 | 18.1 |
| Cc1noc(C)c1C(=O)Nc1nc(-c2ccc(F)cc2)cs1 | 12.8 |
| COC(=O)c1sc(NC(=S)NC(=O)c2ccc(F)cc2)nc1C | 14.2 |
| O=C1COc2ccc(S(=O)(=O)CCC(=O)N3CCN(c4ccccc4)CC3)cc2N1 | 4.58 |

| Compound | hERG current change (%, negative = inhibition) at 1uM [%] |
| --- | --- |
| Cc1cccc(NS(=O)(=O)c2ccc(C(=O)N3CCCC3)cc2)c1C | 2.92 |
| COc1cccc(CNC(=O)C2CCN(S(=O)(=O)c3ccc4c(c3)NC(=O)CO4)CC2)c1 | 10.2 |
| CC(=O)c1cc2c(cc1NS(=O)(=O)c1ccc3c(c1)OCCO3)OCO2 | 0.659 |
| O=C(COc1cccc(Br)c1)N/N=C/C(=O)c1ccccc1 | 9.07 |
| Cc1ccccc1CNC(=O)Cn1cnc(S(=O)(=O)N2CCCC2)c1 | 12.8 |
| CC(=O)N1CCN(C(=O)c2cc(C)nc3ccccc23)CC1 | 9.05 |
| COc1cc(/C=N/NC(=O)c2cc(-c3ccco3)nc3ccccc23)cc(OC)c1O | 10.2 |
| COc1cc(CNC(C)(C)CO)cc(Br)c1OCc1ccccc1.Cl | 8.67 |
| CC(C)(C)NC(=O)C(=O)NNC(=O)c1cccc(F)c1 | 13 |
| CC1(C)CC(=O)C(C=NCCN2CCN(C3CC(=O)N(c4cccc(Br)c4)C3=O)CC2)=C(O)C1 (stereo not drawn) | 2.16 |
| CCCCCCn1nc(C(=O)OCC(=O)NC2CCS(=O)(=O)C2)c2ccccc2c1=O (stereo not drawn) | -9.6 |
| CC(C)NC(=O)NC(=O)COC(=O)c1c2c(nc3ccccc13)CCC2 | 3.78 |
| COc1ccc(N/C(=N\c2nc(C)cc(C)n2)NC(=O)C(C)C)cc1OC | 16.4 |
| COc1ccc(Cn2c(N)c(C(=O)NCc3ccco3)c3nc4ccccc4nc32)cc1 | -0.563 |
| Cc1c(NC(=O)C2CCCCN2S(=O)(=O)c2ccc(Cl)cc2)c(=O)n(-c2ccccc2)n1C (stereo not drawn) | 17.3 |
| CC1CC(C)CN(CCCNC(=O)Cn2cccc2C(=O)c2ccccc2)C1 (stereo not drawn) | -25 |
| COc1ccc(-c2noc(CCC(=O)NCc3ccco3)n2)cc1 | 13.9 |
| COC(=O)c1sccc1OCc1cccc(OC)c1 | 7.62 |
| Clc1ccc2noc(-c3ccccc3)c2c1 | 6.82 |
| COc1cccc(CNC(=O)Cn2cc3c(n2)CCCCC3)c1 | 3.83 |
| NC(=O)CN1CCN(S(=O)(=O)c2ccc(Cl)cc2)CC1 | 11.1 |
| COc1ccc(NC(=O)CCC(=O)Nc2ccc3nc(N4CCOCC4)cc(C)c3c2)c(OC)c1 | 13.7 |
| COc1cccc(OC)c1C(=O)NC(=S)NCc1cccnc1 | 13 |
| CCn1c(=O)cc(C(=O)OC)sc1=Nc1ccc(F)c(F)c1 | -11.1 |
